Data published in the supplement of paper PMC8116656.

Legend:
Assay in all cases: Isolates counted by MIC
[1] = tested on: Paenibacillus lautus (10 isolates)
Method: (§1)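 CLSI M07 broth microdilution in cation-adjusted Mueller-Hinton broth, 0.25-256 µg/mL, 24 h at 35 °C in air (Clostridium: agar dilution, anaerobic).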

[2] = tested on: Paenibacillus cineris (21 isolates)
Method: as §1

[3] = tested on: Alkalihalobacillus clausii (21 isolates)
Method: as §1

[4] = tested on: Bacillus paralicheniformis (11 isolates)
Method: as §1

[5] = tested on: Bacillus sp. (15 isolates)
Method: as §1

[6] = tested on: Paenibacillus dendritiformis (14 isolates)
Method: as §1

[7] = tested on: Paenibacillus sp. (10 isolates)
Method: as §1

[8] = tested on: Bacillus licheniformis (32 isolates)
Method: as §1

CN(C)[C@@H]1C(O)=C(C(N)=O)C(=O)[C@@]2(O)C(O)=C3C(=O)c4c(O)cccc4[C@@](C)(O)[C@H]3[C@H](O)[C@@H]12 [oxytetracycline]
Settings	isolate count
[1], MIC: 4 µg/ml	3
[1], MIC: 8 µg/ml	1
[1], MIC: 16 µg/ml	3
[1], MIC: 32 µg/ml	3
[2], MIC: 1 µg/ml	1
[2], MIC: 8 µg/ml	1
[2], MIC: 32 µg/ml	7
[2], MIC: 64 µg/ml	10
[2], MIC: 128 µg/ml	2
[3], MIC: 0.5 µg/ml	1
[3], MIC: 1 µg/ml	2
[3], MIC: 2 µg/ml	1
[3], MIC: 4 µg/ml	15
[3], MIC: 8 µg/ml	2
[4], MIC: 8 µg/ml	5
[4], MIC: 16 µg/ml	6
[5], MIC: 0.5 µg/ml	2
[5], MIC: 1 µg/ml	3
[5], MIC: 2 µg/ml	3
[5], MIC: 8 µg/ml	1
[5], MIC: 16 µg/ml	2
[5], MIC: ≤0.25 µg/ml	4
[6], MIC: 0.5 µg/ml	7
[6], MIC: 1 µg/ml	6
[6], MIC: 64 µg/ml	1
[7], MIC: 0.5 µg/ml	1
[7], MIC: 2 µg/ml	1
[7], MIC: 4 µg/ml	1
[7], MIC: 8 µg/ml	2
[7], MIC: 16 µg/ml	1
[7], MIC: 32 µg/ml	1
[7], MIC: 64 µg/ml	1
[7], MIC: 128 µg/ml	1
[7], MIC: ≤0.25 µg/ml	1
[8], MIC: 0.5 µg/ml	15
[8], MIC: 1 µg/ml	1
[8], MIC: ≤0.25 µg/ml	16

CCC[C@@H]1C[C@@H](C(=O)N[C@@H]([C@H]2O[C@H](SC)[C@H](O)[C@@H](O)[C@H]2O)[C@@H](C)O)N(C)C1 [lincomycin]
Settings	isolate count
[1], MIC: 128 µg/ml	6
[1], MIC: 256 µg/ml	4
[2], MIC: 256 µg/ml	10
[2], MIC: >256 µg/ml	11
[3], MIC: 128 µg/ml	1
[3], MIC: 256 µg/ml	7
[3], MIC: >256 µg/ml	13
[4], MIC: 8 µg/ml	1
[4], MIC: 256 µg/ml	1
[4], MIC: >256 µg/ml	9
[5], MIC: 4 µg/ml	1
[5], MIC: 8 µg/ml	3
[5], MIC: 16 µg/ml	7
[5], MIC: 128 µg/ml	1
[5], MIC: 256 µg/ml	1
[5], MIC: >256 µg/ml	2
[6], MIC: 1 µg/ml	1
[6], MIC: 2 µg/ml	2
[6], MIC: 4 µg/ml	1
[6], MIC: 8 µg/ml	7
[6], MIC: 16 µg/ml	1
[6], MIC: 32 µg/ml	1
[6], MIC: 64 µg/ml	1
[7], MIC: 32 µg/ml	1
[7], MIC: 64 µg/ml	1
[7], MIC: 128 µg/ml	1
[7], MIC: 256 µg/ml	1
[7], MIC: >256 µg/ml	6
[8], MIC: 128 µg/ml	2
[8], MIC: 256 µg/ml	9
[8], MIC: >256 µg/ml	21

CC[C@H]1OC(=O)C[C@@H](O)[C@H](C)[C@@H](O[C@@H]2O[C@H](C)[C@@H](O[C@H]3C[C@@](C)(O)[C@@H](O)[C@H](C)O3)[C@H](N(C)C)[C@H]2O)[C@@H](CC=O)C[C@@H](C)C(=O)/C=C/C(C)=C/[C@@H]1CO[C@@H]1O[C@H](C)[C@@H](O)[C@@H](OC)[C@H]1OC [tylosin]
Settings	isolate count
[1], MIC: 4 µg/ml	1
[1], MIC: 8 µg/ml	6
[1], MIC: 16 µg/ml	3
[2], MIC: 4 µg/ml	2
[2], MIC: 8 µg/ml	3
[2], MIC: 16 µg/ml	10
[2], MIC: 32 µg/ml	5
[2], MIC: 64 µg/ml	1
[3], MIC: 8 µg/ml	1
[3], MIC: 16 µg/ml	1
[3], MIC: 32 µg/ml	1
[3], MIC: 64 µg/ml	9
[3], MIC: 128 µg/ml	2
[3], MIC: 256 µg/ml	1
[3], MIC: >256 µg/ml	6
[4], MIC: 1 µg/ml	1
[4], MIC: 2 µg/ml	9
[4], MIC: 4 µg/ml	1
[5], MIC: 1 µg/ml	4
[5], MIC: 2 µg/ml	8
[5], MIC: 4 µg/ml	1
[5], MIC: 8 µg/ml	2
[6], MIC: 0.5 µg/ml	1
[6], MIC: 4 µg/ml	1
[6], MIC: ≤0.25 µg/ml	12
[7], MIC: 1 µg/ml	1
[7], MIC: 2 µg/ml	1
[7], MIC: 4 µg/ml	3
[7], MIC: 8 µg/ml	4
[7], MIC: 32 µg/ml	1
[8], MIC: 1 µg/ml	13
[8], MIC: 2 µg/ml	16
[8], MIC: 4 µg/ml	3

Each value is the number of isolates with that result; steps that no isolate showed are left empty. MIC of bacteria isolated from honey, broth microdilution (CLSI M07), 0.25-256 µg/mL, 24 h at 35 °C; higher = less susceptible. No active / inactive call. Isolates were picked on agar with 1 µg/mL tylosin.
